According to ChEMBL document CHEMBL1201862, “PubChem BioAssay data set” (2004):
Where a name gives a salt, the structure may show the parent alone. Activity calls are given as the source filed them.

Columns and labels:
[1] = target: T1, CAAX prenyl protease 2 (Saccharomyces cerevisiae S288c, UniProt Q03530); assay type: biochemical
T1 sequence (Q03530 whole entry): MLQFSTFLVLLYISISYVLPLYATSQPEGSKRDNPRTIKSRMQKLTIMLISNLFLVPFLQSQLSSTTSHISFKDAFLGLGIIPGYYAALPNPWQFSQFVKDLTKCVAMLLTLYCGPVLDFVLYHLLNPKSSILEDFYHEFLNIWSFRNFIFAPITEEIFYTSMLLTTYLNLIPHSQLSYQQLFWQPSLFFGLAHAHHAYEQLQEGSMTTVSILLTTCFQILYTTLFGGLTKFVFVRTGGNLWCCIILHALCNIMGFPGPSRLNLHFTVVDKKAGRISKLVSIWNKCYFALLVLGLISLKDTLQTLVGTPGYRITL

[2] = target: T2, CAAX prenyl protease 2 (Homo sapiens, UniProt Q9Y256); experiment: human Rce1 protease inhibitors, dose response, biochemical, yeast membranes, quenched-peptide fluorescence, cherry-pick (AID 588849)
T2 sequence (Q9Y256 whole entry): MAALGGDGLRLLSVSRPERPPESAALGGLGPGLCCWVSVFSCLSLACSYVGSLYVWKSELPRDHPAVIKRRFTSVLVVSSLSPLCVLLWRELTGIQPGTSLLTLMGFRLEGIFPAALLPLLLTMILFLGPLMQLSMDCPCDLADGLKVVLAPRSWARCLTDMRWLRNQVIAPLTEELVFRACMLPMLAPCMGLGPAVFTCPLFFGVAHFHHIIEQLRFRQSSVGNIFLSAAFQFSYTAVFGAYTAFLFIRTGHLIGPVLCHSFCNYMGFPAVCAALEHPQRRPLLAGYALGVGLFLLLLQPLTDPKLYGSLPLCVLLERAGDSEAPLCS

[3] = target: T3, Streptokinase A (Streptococcus pyogenes serotype M1, UniProt P10520); experiment: S. pyogenes streptokinase expression inhibitors, potency, dose response, plasminogen activation absorbance, OD405 (AID 1914); assay type: functional, Streptococcus pyogenes M1 GAS;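 also: secreted streptokinase activity via plasminogen activation per viability signal from cell pellet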
T3 sequence (P10520 whole entry): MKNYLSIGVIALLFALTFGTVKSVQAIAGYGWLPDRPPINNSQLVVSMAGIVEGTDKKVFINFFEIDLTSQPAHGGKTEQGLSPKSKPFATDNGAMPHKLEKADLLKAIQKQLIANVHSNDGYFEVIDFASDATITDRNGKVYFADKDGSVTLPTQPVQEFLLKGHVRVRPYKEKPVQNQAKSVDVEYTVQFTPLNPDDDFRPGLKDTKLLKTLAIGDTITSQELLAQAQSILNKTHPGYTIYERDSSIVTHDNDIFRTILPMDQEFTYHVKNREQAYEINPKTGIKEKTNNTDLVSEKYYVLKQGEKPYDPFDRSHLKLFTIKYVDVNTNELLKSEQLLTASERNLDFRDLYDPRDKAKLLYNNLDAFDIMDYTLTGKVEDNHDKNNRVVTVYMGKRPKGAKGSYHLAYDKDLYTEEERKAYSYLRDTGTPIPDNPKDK

[4] = tested on: Streptococcus sp. 'group A'; experiment: growth inhibition of control SK(-) GAS strain, dose response, counter-screen for streptokinase expression inhibitor project, luminescence, kanamycin, BacTiterGlo, confirmation (AID 1900); assay type: functional, organism-based

Fc1ccc(C(c2ccc(F)cc2)N2CCN(C/C=C/c3ccccc3)CC2)cc1 [FLUNARIZINE DIHYDROCHLORIDE]
active: AC50 [1] 3.5 µM | AC50 [2] 70.9 µM | EC50 [3] 9.95 µM | EC50 [4] 8.7 µM
